From the supplement of paper PMC10681739 come the findings set out here.

± gives the standard deviation of the averaged measurements. The full ranking holds about 4,000 sequences; the median of “arbitrary fluorescence units” is about 830, and the highest 2% start at about 6,500. This part holds few or none of the hits.
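Also: Full-length recombinant human RUNX1 bound to double-stranded DNA microarray spots, detected with an Alexa488-labelled secondary antibody after the anti-RUNX1 primary, read as scanned spot fluorescence.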

The assay addresses RUNX1 (UniProt Q01196). Nature of the assay: RUNX1 binding intensity (PBM fluorescence), RUNX1 alone (arbitrary fluorescence units); higher = stronger binding. The conditions noted are these: RUNX1 concentration 2 nM; ETS1 concentration 0 nM. As to the method: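 gcPBM on 36-bp genomic-derived probes (partner site mutated) containing one RUNX1 site and no ETS1 site. Recombinant human RUNX1 (2 nM) was incubated alone or with ETS1 (25 nM) and detected by anti-RUNX1 antibody fluorescence. Values are medians over 4 replicate spots (not normalised). The probes sit in constant array flanks that are not printed.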
UniProt Q01196, sequence (Q01196 whole entry): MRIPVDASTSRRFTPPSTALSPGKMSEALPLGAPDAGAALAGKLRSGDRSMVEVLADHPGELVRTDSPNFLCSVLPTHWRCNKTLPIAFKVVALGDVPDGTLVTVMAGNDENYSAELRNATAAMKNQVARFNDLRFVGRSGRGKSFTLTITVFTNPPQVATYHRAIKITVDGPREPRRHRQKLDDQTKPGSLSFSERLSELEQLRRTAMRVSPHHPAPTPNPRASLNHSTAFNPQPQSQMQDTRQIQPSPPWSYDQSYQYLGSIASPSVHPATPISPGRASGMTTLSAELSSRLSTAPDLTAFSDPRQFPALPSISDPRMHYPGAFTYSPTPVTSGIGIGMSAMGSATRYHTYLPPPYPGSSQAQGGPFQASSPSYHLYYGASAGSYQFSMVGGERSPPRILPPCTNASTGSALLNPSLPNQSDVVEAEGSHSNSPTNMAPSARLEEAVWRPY
Sequence CTTGTTCTATCTCCTGTTTGTGGTGAGTGACTGTCT came in with an RUNX1 binding intensity of 1370.

For the sequence GGCTTTACGTTCAAGGATCTTTTTGCGGTCTTTGTC, the RUNX1 binding intensity turned out to be 1310.

As for GACTGCGCCGGGCGCGCCAGCCCTGCGGGATGACGT, the RUNX1 binding intensity was 781.

On to GGGAGGTCACCTCCTGCCCGCGGTCTCAGAAAAGCT, for which the RUNX1 binding intensity is 793.

Take GGGGAGGACGCGGAGGAGGAGCTGTGGGAAGGGGGA: the RUNX1 binding intensity is 847.

Turning to GCGCACCCGGGTCACGCTAACGCCGCGGTCTCCTCC, the RUNX1 binding intensity worked out at 689.

Sequence CTCTCAATTCCCGTGTGAGAAAAACCACAGAAAAGC showed an RUNX1 binding intensity of 2620.

Regarding AGGAGAACTGCCGCCCTTACTATATTACCGCCGGTA, the RUNX1 binding intensity was found to be 792.

In the case of AGCACTGCGGCCAGGACTACAAATCCCAGCATGCAA, the RUNX1 binding intensity was 781.

Sequence TTTCTCTTTCTGATTCCACCCTGACCACAGCCAGCT had an RUNX1 binding intensity of 3020.

In the case of GAAAGACAGGGTGTGGGATAGATCTCAACCACCTTT, the RUNX1 binding intensity came to 698.

TCATGTCCTCTGGTGTTATTGTGTTGTGGTTTTAAG gave an RUNX1 binding intensity of 1570.

For the sequence GGTTTCACTTGCTGCGTTGGGCCTTGTGGCCTCCTT, the RUNX1 binding intensity was found to be 834.

AGCTTGCCGTAAGCTGGTTGTTCGCTGCGGCGACCA registered an RUNX1 binding intensity of 723.

GAAGCGGCAGTCGCTGAGGGGTGGTGAAGCGGTTGG returned an RUNX1 binding intensity of 690.

For the sequence ACGGACAGAATTGCCTCCCCCGTCACCACAGCGACC, the RUNX1 binding intensity was found to be 915.

For AGCTTTTCGTCGCTCCGGCCCGCCTCGCCGCAAGGC, the RUNX1 binding intensity amounted to 915.

Regarding AGGGACTTTCGGTGACCAGAGCACTAGCGCCGCAAA, the RUNX1 binding intensity turned out to be 857.

Take AACCAGAATAACCACAGATCAAGCCGTAAGCACATG: the RUNX1 binding intensity was determined as 1710.

As for CTTATCCCACAAGGGCACCTGGCTGGAATAATGGAG, the RUNX1 binding intensity came to 783.

In the case of GTCACGCGCCGGCTCCAACCCCCAACCACTTTAGCC, the RUNX1 binding intensity came to 1050.

Sequence GCGCTCAAGCTGCCCACAGGTCTTCAGACCTAACTT returned an RUNX1 binding intensity of 738.

As to GAAACCACAACCTACCCCAGCCTTACTTTCGGGCGC, the RUNX1 binding intensity was found to be 3300.

Consider AGCAACCCCAGCCCCACAGCGCTTCATGAGAAGTAA, for which the RUNX1 binding intensity worked out at 825.

Consider GAGGAAAAAGGACACAGAAACTCCGCAACTTGCGCC, for which the RUNX1 binding intensity worked out at 801.

Take CTGCAGCCGCGGTCTCCCGGCCGAAGCTCTTCACTT: the RUNX1 binding intensity is 811.

Consider CTGCTGCGGGGATCCTTGGGGCCCTTACGGTCGGTG, for which the RUNX1 binding intensity turned out to be 727.

For CAGCACGCAGCAAGCACATGTGGTGGGGCTCTTCCA, the RUNX1 binding intensity was 750.

CCGCTAGCCCGCAGCGCTCGGCTCCCTGGTAATTCT came in with an RUNX1 binding intensity of 1020.

CCGGGACCGCGTACTCGTCCTTCTTTGCCGTTAGTC had an RUNX1 binding intensity of 902.

Consider ACCGTGGTGTTCCCCCCAATGCCTTGTGGGAGTTGT, for which the RUNX1 binding intensity was 905.

In turn, CTTCTGGCCGCAAGGCGCCAGCGCTCCCGGGCCCCA showed an RUNX1 binding intensity of 919.

In turn, TGGCTGTCACTTGCTGTCCCACTGTGGTTCCTGGGA came in with an RUNX1 binding intensity of 727.

Regarding GGTGGGAGTGACCACAACACTTCGTGCCCTCTTCCA, the RUNX1 binding intensity was found to be 2200.

As for GGTTGGTGGTTCGATCCCACCCAGGGACGGAGGTCG, the RUNX1 binding intensity was found to be 800.

As for CTTTTGCGGCTACATGTCCCCCTTTACGGGAATCTG, the RUNX1 binding intensity was 2520.

With GAGGTGGTCAGAGCCTCCCTTGACATGAAACAAGAA, the RUNX1 binding intensity was 724.

In the case of GCCCAGGGCGGCTGGAAGTTTGCGGGGCGGGGCGGA, the RUNX1 binding intensity was found to be 689.

With GCACGAAACGCTTTCTTAACACTATGTGGGTGAGGT, the RUNX1 binding intensity was 746.

Sequence TGGCTTTCTGTCTGTCCTTCATCAGCCCACAGAGGC displayed an RUNX1 binding intensity of 830.

Turning to GGGCGCGACTCCCGGGGCGGCGGTTGCATCAGATTC, the RUNX1 binding intensity was determined as 744.

Turning to GTGGCTGTGGTTGAACTGACTCTCGGGTTTGCGCTC, the RUNX1 binding intensity was 969.

Turning to ACATGAGGAATCTGAAGCATAGAGAGGGTGGTTAAC, the RUNX1 binding intensity is 758 ± 23.

CACTCCCGGGTCGTCAGCTCAGTTCTGCGGTTTCTG registered an RUNX1 binding intensity of 4760.

TCTGCGGCTTTCTCTCCCCAGCCACAGCCGCCATTC registered an RUNX1 binding intensity of 2390.

In the case of TTCTGCTACATGCTGCCCACTCCCTGTGGCTTCCAC, the RUNX1 binding intensity was 1070.

For TGGCGCCTGAAAACTGGCGATGCGGGTGGGCGCGAA, the RUNX1 binding intensity worked out at 620.

GTTCAGCAGCCACAACAAGAGAGGCTGTGTAGTGTT: the RUNX1 binding intensity was determined as 790.

For the sequence AGACCCTGTGGTCACATGGCAGCAAGTCTGCAGGTT, the RUNX1 binding intensity amounted to 945.

In the case of AGCTTGCTTTCTGTCCCCAAAACCCACAGCACACGG, the RUNX1 binding intensity is 865.

Turning to CACTCCCCCCAGCCTCTCTTTTTAATACCACAATAG, the RUNX1 binding intensity was 1830.

The sequence AGCCGCCACTGCCTGTCTCTGCGGGTGCATGCTCTT returned an RUNX1 binding intensity of 837.

Turning to TGCCCAGTAGTTCCTCTTGTGGGGGAGCACAACTTG, the RUNX1 binding intensity was determined as 792.

CGGCCGAAGGCGGACTCTCGCGGGAGCCACAAAGAG gave an RUNX1 binding intensity of 810.

Consider GAAACAATTGCCTGTACCTCTGTGGTAAAAATGATA, for which the RUNX1 binding intensity was determined as 941.

Take TCGCACCTGAACCCCTTGGCGGATTATGTGGGTTCC: the RUNX1 binding intensity came to 777.

Turning to GGAGTGAACAACCGCAACAGATAGGGAATTGACACA, the RUNX1 binding intensity turned out to be 2620.

For the sequence TCAGTGTCCTCATCAGGGGCAAGGGCACCACCGCGG, the RUNX1 binding intensity is 714.

With GATGTGGTCTCGGCTGGAGCCTGCACGAAACCTCGT, the RUNX1 binding intensity was determined as 791.

The sequence CAGGACCGCTGTACTCCGGGTGAAGCTGAAGCGCAG had an RUNX1 binding intensity of 683.

The sequence GACCTTCAGCGGTGGGTCCCGAAACTGGGTTTTAGG came in with an RUNX1 binding intensity of 772.

AGCGGCAGTAGAGCAAGCCTTCGCGGTCCATGGCCA displayed an RUNX1 binding intensity of 745.

Turning to AATCACTGACACCCACACAGCCGTTTCGTGCACTTA, the RUNX1 binding intensity came to 996.

AGGCTTCTCCCGGGCGTCTCTTTGTGGTGGCGTTGA had an RUNX1 binding intensity of 834.

Take CCCCCGCCGCAGGCGCCCATCAGTGCCACTTTCGGA: the RUNX1 binding intensity turned out to be 1070.

On to CAGTGGCAGTAGCGGTTTGGCCCTTCATGCCCTGGG, for which the RUNX1 binding intensity came to 878.

Turning to TTAAAAACCACCTGAGACTCCAGTTCCCGGCGTGCT, the RUNX1 binding intensity is 729.

Consider GCACGCGCCGCAGGCCGACCCCTGGAACCCTCCGGG, for which the RUNX1 binding intensity stood at 798.

AAACGTCCTCTTTTTAGCGCGCAGGCGCCGCAGGGC showed an RUNX1 binding intensity of 782.

Sequence TGTCTTCAGGCAGTGTAGCAGGTGTTGAGGTCAAGC had an RUNX1 binding intensity of 702 ± 18.

In turn, GCGATTGTGGTTCCCGCCGTAGTTCACGTTCCCCAT gave an RUNX1 binding intensity of 1100.

Turning to CAGCTCCGAATTCCGGGTGCGGTACGGCGAAGCAGA, the RUNX1 binding intensity worked out at 805.

ATAGTCTCTTTCTGTGTTGCAAACCACAGGTCCACC: the RUNX1 binding intensity stood at 1220.

TGTGCATGTGGTTTTCGGGTACGTGATTGCCTCTTT: the RUNX1 binding intensity worked out at 2800.

For TGCAATCAGGGAGCCTGCCCCTCTAGAACCACAAAA, the RUNX1 binding intensity was 758.

For the sequence TCTCGGTCTCCTAAAAAACTAAACCGCCTGGGGCTG, the RUNX1 binding intensity turned out to be 996.

On to CCCCTCCCCTCAGCCGCAGGTGTTTCAGTTCGGGTG, for which the RUNX1 binding intensity came to 823.

AAATCACATGTCCCAGAGTGCACCGCGACGGCAGGG showed an RUNX1 binding intensity of 727.

CTCTGAAGGAATTGATGTTAGACGGCTGTGGGTGGT returned an RUNX1 binding intensity of 696.

CTTATCAACCACCAAGAGACATGTCCCCTTTGTACT: the RUNX1 binding intensity is 1060.

Regarding CCGCCGCGACACTTTCGGCGGCCACCACAGGGTATT, the RUNX1 binding intensity was found to be 833.

GCTCCCTTGCTGAGCCTCTGCTGGCCTCACCACAGG displayed an RUNX1 binding intensity of 906.
